Test results taken from the supplement of paper PMC3334620.
In all, about 33,000 sequences were measured (“E-score (-0.5 to 0.5)”: median about -0.016, highest 2% from about 0.32 on). Some of the results follow.

Target: T1, Stp1 (UniProt B3LFK1)
T1 sequence: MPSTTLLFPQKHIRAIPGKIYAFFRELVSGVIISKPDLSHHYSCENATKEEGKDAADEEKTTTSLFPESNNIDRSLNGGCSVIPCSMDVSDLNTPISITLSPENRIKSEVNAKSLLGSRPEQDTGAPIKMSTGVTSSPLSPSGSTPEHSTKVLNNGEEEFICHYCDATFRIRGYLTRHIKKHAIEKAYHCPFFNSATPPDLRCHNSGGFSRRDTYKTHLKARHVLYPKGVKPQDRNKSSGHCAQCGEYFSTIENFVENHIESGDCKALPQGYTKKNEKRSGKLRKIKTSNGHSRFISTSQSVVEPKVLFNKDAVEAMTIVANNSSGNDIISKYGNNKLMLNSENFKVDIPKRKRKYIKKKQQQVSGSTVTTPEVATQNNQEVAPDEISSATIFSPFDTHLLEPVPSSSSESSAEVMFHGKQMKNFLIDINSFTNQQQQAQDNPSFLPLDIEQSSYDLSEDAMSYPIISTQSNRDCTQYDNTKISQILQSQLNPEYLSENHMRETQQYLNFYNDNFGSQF
Test: PBM E-score (8-mer binding enrichment) (E-score (-0.5 to 0.5)); higher = stronger / more preferred TF binding; most listed sequences are background and not binding sites
Conditions: protein concentration: 200 nM; construct: GST-full length
Summary of the method: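 Yeast transcription factors, full-length or as DNA-binding domains, were expressed with a GST tag using PURExpress in vitro transcription/translation. At about 100-200 nM they were applied to universal all-10-mer Agilent arrays, double-stranded by primer extension on fresh or once-stripped slides. Fluorescent anti-GST detected bound protein, and masliner normalised the scans. E-scores for ungapped eight-base words, pooled with reverse complements, came from the Universal PBM Analysis Suite.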

Sequence | PBM E-score
AACCCCTT | -0.257
CGGCTATA | 0.246
CTTTCAGC | 0.0149
AGTTTCTA | 0.0128
GCCGAGAA | 0.173
GGTCTAAC | -0.0214
CTAGCGCC | 0.16
CATGGAGG | -0.166
ACCACACG | 0.0913
GCCTGGTA | -0.227
GTAGAGAC | -0.243
AACCAACT | -0.0274
GCTGTTAC | 0.0627
AAGTGTGC | 0.122
CACTACCA | 0.0268
CCTTTTGA | 0.112
CAGCGTGG | 0.0374
ACGCATCC | -0.151
ACATAACC | -0.0579
ATTTGGTC | 0.135
GCCAGTCA | -0.217
ACTCAGTC | -0.21
CGATGACG | -0.00902
GCAAGAGC | 0.0505
CACATCCG | 0.0228

Sequence | PBM E-score
GAATCCCC | -0.312
CGGTTAAG | -0.0804
AAGGACCT | -0.0559
AGTGAATC | -0.132
CCGATCTC | -0.112
CGGTACAG | -0.0614
CTCTCGAC | -0.159
GCGATTCA | -0.0665
AGCTGATC | 0.0485
CAGTTACA | 0.149
AAAACATG | -0.00948
ACGCTCAG | -0.162
GCAGGGCA | 0.23
AGCATAAT | 0.119
GCCCTCTA | -0.0132
ATGACTAG | -0.162
ATCCGGCA | -0.0958
AGGAGCGA | -0.105
ATTGGTCA | 0.055
AATTAGAC | 0.00502
CACTGTGA | 0.0499
CTCTTGAA | 0.106
AGTAGTAA | 0.0162
CGACGGGA | 0.0948
AGGGACCG | -0.252

Sequence | PBM E-score
AGATATCG | -0.0236
CAACGATC | -0.133
TCAACGGA | -0.112
TAGTGGCA | 0.00013
AAAGGCAG | 0.172
AGTCGAGA | -0.098
TACGCAAA | -0.0339
ATAGAACG | 0.259
ATCATCGA | -0.0598
CATGCCGC | 0.427
CACGATAA | 0.126
CGTTCATA | 0.156
CAACCTGA | -0.149
TCCCTAGA | 0.0849
GATCGCGC | 0.206
GGTCGGCA | 0.00959
ACATCTTC | 0.0131
AAGAGGCT | 0.0613
CGAGTGCC | 0.255
ATTTATCG | 0.2
GGAGCTCC | -0.416
CCTGGGCG | 0.0498
AACAAGGA | 0.205
ACGGAAAC | 0.0046
CATATACG | 0.17

Sequence | PBM E-score
ACCTGGCC | -0.0748
GAGTTTGA | -0.018
ACCGTTAA | -0.00718
TGAAATCA | 0.148
CAGAAAGA | 0.0676
CACATTTA | -0.013
CCGGGTCA | -0.202
CCTAGCTA | -0.229
GCATACTA | 0.0331
CCTACCAG | -0.315
GAACCCCA | -0.224
CGACTAAC | -0.0568
CACGTAGA | -0.0113
AGGTTGTG | -0.0649
ATGGCCGC | 0.216
CGTTTGGC | 0.0114
ATACAACC | 0.205
ACCGATGA | -0.096
ACTTGAAA | 0.0963
CCCATTCA | -0.0474
GGACCATA | -0.0836
ATGACCAC | -0.0753
GATTCAAC | 0.147
GTGCGGAA | 0.132
AATTCCGC | 0.103

Sequence | PBM E-score
AAAAGCAT | -0.0178
CACAGATA | -0.0503
ACGCATTC | -0.106
ACTTTAGA | 0.011
AAACACCG | 0.139
ACGATAGC | -0.0624
AGCGACGC | -0.0144
ACTTCACG | -0.149
GGGGCTTA | -0.356
AGGGACAC | 0.131
CAGTCTGC | -0.183
CCGTGGCA | 0.357
CGCTTAGC | -0.0622
ACGAATAT | 0.079
GCGGCTCC | 0.315
AGCACCCG | -0.144
GTACGACA | -0.00808
GGTTATTA | 0.16
ATCACCCA | -0.178
GGAATCCC | -0.216
ACCTATTG | -0.156
GACAGCGA | -0.189
CTTAATTC | 0.143
GGATCACC | -0.154
CTCCGTCC | -0.2

Sequence | PBM E-score
AGCACCAT | -0.273
ATATAGCG | 0.0103
CAACGTGC | 0.145
CGTGCAAG | 0.114
CATATCCG | 0.0484
GAATCCAC | 0.0318
AGGTAAAC | 0.156
AGCTCTAT | -0.215
CAGAAACC | 0.0261
CGTTCGGA | 0.0237
CACAGGGA | -0.0963
AACGCCCA | 0.122
CGCCTTAG | 0.234
CTCCACTC | -0.277
AGCTGTCA | -0.1
AACGGCTC | 0.407
ACTGTGGC | -0.143
ACGCGTGA | 0.15
CCTAAAAG | -0.21
CAGGAAAG | -0.122
AACGTACA | 0.0458
GGTAACTA | 0.128
CGGCCGGC | 0.235
CATTCACC | -0.00482
CGTGCGTC | 0.225

Sequence | PBM E-score
CAAGGCTG | -0.171
GGCAGTCA | 0.0148
ATATCGCG | 0.127
AACGGAGA | 0.0583
CACAGGCA | 0.0162
GAGGAGCC | 0.0169
CCTAGCCC | -0.374
AAAGATGT | 0.01
CGTTGATC | 0.0467
AAACTACT | 0.104
GACCGGTA | -0.386
AGGTTCAC | -0.0415
CGCGTGAG | 0.26
AGCGAGCT | -0.0441
GAGTTCGC | -0.00842
CAATCTAA | -0.0297
AGTGTATA | -0.108
GCTAGTAA | 0.0343
ACTCCAGG | -0.175
TTCGAGAA | -0.0268
ACCCACGC | -0.111
CACCTTGA | -0.107
